From publication PMC9574860, “Chemical Toolkit for PARK7: Potent, Selective, and High-Throughput” (Journal of Medicinal Chemistry, 2022)
Hit rate of the full screen: of about 7,900 compounds, about 400 (5.1%) showed an effect of 50% or more. The list shows a part of the results.

target: Parkinson's disease protein 7 (PARK7/DJ1) (human, UniProt Q99497); assay: primary screen, percent inhibition; read as competition with a fluorescent probe by fluorescence polarization; higher = more effect of the substance; details: 100 µM
Sequence (Q99497 whole entry, looked up, the tested form may be a part): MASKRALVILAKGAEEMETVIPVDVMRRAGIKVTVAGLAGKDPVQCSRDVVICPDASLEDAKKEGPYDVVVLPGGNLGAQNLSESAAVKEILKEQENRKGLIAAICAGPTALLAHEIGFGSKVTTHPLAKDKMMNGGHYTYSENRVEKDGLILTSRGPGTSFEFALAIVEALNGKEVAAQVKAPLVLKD
How it was run: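 Fluorescence-polarization probe displacement (JYQ-107, 20 nM final, 2 h) after 2 h preincubation of PARK7 (0.2 μM final) with each fragment at 100 μM final. Read-out ex/em 480/520 nm; remaining activity derived from FP signal loss relative to reference controls.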

| SMILES | Inhibition % |
| --- | --- |
| CCc1nc(C)cn1S(=O)(=O)c1cc(C)c(C)cc1OC | 11.8% |
| C=CC(=O)N1CCCC1CC(=O)c1cnn(C)c1 (stereo not shown) | 4.28% |
| Cc1noc(C)c1Cn1c(-c2ccccn2)noc1=O | 0.962% |
| COC(OC)c1ccnc(C2CC2)n1 | 9.42% |
| CCN1C(=O)CSC1=C(C#N)C(N)=O | -0.475% |
| C=CC(=O)N1CCNC(=O)CC1c1ccccc1 (stereo not shown) | 9.46% |
| N#Cc1ccc(N2CC(O)(c3ccc(F)cc3)C2)cn1 | 7.79% |
| CC1CC(Sc2ccccn2)C(=O)O1 (stereo not shown) | 5.37% |
| O=C(CCl)c1ccccc1 | 56.6% |
| CCc1ccc(OC)c(S(=O)(=O)n2ccc(C)n2)c1 | 0.685% |
| C=CC(=O)N1CCCC(c2ccncn2)C1 (stereo not shown) | 19.2% |
| O=C(O)C1CCN(S(=O)(=O)C=Cc2ccccc2)CC1 | 8.92% |
| Cc1nc(N)nc(S)n1 | 2.52% |
| O=C(CCl)Nc1ccc([N+](=O)[O-])cc1Cl | 14.3% |
| CC1(C)OB(c2ccc3c(c2)COCC3)OC1(C)C | 5.99% |
| O=S(=O)(Oc1ccc(Cl)c2cccnc12)c1c[nH]cn1 | 5.92% |
| CC1(C)CC(=O)N1CN1CCC2(CC1)OCCO2 | 5.08% |
| COc1cc(S(=O)(=O)n2cnc(C)c2)ccc1Cl | 6.12% |
| COc1ccc(C(NC(=O)CCl)C(C)C)cc1 (stereo not shown) | 5.34% |
| COc1ccc(C=CB2OC(C)(C)C(C)(C)O2)cc1 | 5.69% |
| Cc1ccc(C(=O)Cn2cnc(C#N)n2)cc1 | 2.84% |

| SMILES | Inhibition % |
| --- | --- |
| C=CC(=O)NC(c1ccnc(Cl)c1)C1CC1 (stereo not shown) | 4.26% |
| CCOc1ccc(S(=O)(=O)F)cc1 | 5.8% |
| O=C(Cc1cccc(C(F)F)c1)Nc1cccc(S(=O)(=O)F)c1 | 52% |
| COC(=O)c1ccc(S(=O)(=O)F)cc1F | 4.21% |
| Nc1cccc(N2CCC2=O)c1 | 10.1% |
| COc1ccc(NC(=O)C(C#N)=Cc2ccco2)cn1 | 10.5% |
| Cc1cccc(N(CCC#N)C(=O)CCl)c1C | 6.01% |
| Cc1cccc2c(=O)[nH]c(C(Cl)=Cc3cccnc3)nc12 | 5.81% |
| O=C(CCl)Nc1ccc(OC(F)(F)F)cc1 | 86% |
| C=CC(=O)N1CCCC1c1cc(C)on1 (stereo not shown) | 13.9% |
| CC1CC(N2CCc3sccc3C2)C(=O)O1 (stereo not shown) | 13.9% |
| COc1ccc(S(=O)(=O)n2cccn2)cc1 | 3.02% |
| CC(C)(C)OC(=O)N1C2CCC1C(B1OC(C)(C)C(C)(C)O1)C2 (stereo not shown) | 9.39% |
| C=CC(=O)N1[C@H](C)CN(C(=O)C(C)(C)C)C[C@@H]1C | 6.94% |
| C=CC(=O)NCCc1cc2ccccc2s1 | 1.96% |
| C=CC(=O)N1CCCCCC1c1ncon1 (stereo not shown) | 11% |
| N#CC1(NC(=O)CCl)CCC1 | 20.1% |
| CC(C)(C)NC(=O)Cn1cnc(C#N)n1 | 8.15% |
| Cc1nccn1CCCCl.Cl | 3.62% |
| C=CC(=O)N1CCCN(C(=O)c2ccc(OC)cc2)CC1 | 7.43% |
| CCOCc1ccc(B2OC(C)(C)C(C)(C)O2)cc1F | -3.51% |

| SMILES | Inhibition % |
| --- | --- |
| CC1CN(C)CCN1C(=O)C=Cc1ccccn1 (stereo not shown) | 10.3% |
| O=C(Nc1ccc(CNC(=O)n2ccnc2)cc1)C1CC1 | 92.1% |
| O=C1CC(CC(=O)N2CC3C4C=CC(CC4)C3C2)CO1 (stereo not shown) | 8.44% |
| CC1CN(C(=O)C=Cc2nc3ccccc3o2)CC(C)O1 (stereo not shown) | 8.55% |
| C=CC(=O)N1CCOC(C)(C(F)F)C1 (stereo not shown) | 7.7% |
| O=C1OC(c2ccccc2)=NC1=Cc1cscn1 | 5.55% |
| Cl.Cn1ncc2ncc(B(O)O)cc21 | 1.79% |
| CCNC(=O)c1cc(S)ccn1 | 3.61% |
| COc1cc(NC(=O)OC(C)(C)C)ccc1B1OC(C)(C)C(C)(C)O1 | 14.5% |
| Cn1cc(CO)cc1C#N | 4.94% |
| N#Cc1cccc(N2CCC(C3CCCO3)CC2)n1 (stereo not shown) | 28.8% |
| O=C1CCCc2cc(C(=O)CCl)ccc2N1 | 86.5% |
| CC(=O)N1CCN(C(=O)C=Cc2c(C)nn(C)c2Cl)CC1 | 8.55% |
| Cl.Cl.OB(O)c1ccc(CN2CCNCC2)cc1 | -0.642% |
| C=CC(=O)NCC1(CS(C)(=O)=O)CCOCC1 | 7.52% |
| O=C(CCl)Nc1ccc(F)cc1F | 23.9% |
| C=CC(=O)N[C@@H]1COC[C@H]1OC (racemic) | 5.32% |
| O=C(CCl)Nc1ccc(N2CCCCC2)nc1 | 88.9% |
| CCN(Cc1ccc(Cl)s1)C(=O)Cn1cnc(C#N)n1 | 4.43% |
